The campaign covered roughly 100,000 compounds. About 250 (0.25%) were called active. Inconclusive results, whose numbers are uncertain, are shown with a selection of clear calls. Calls follow the shape of the dose curve; as a rule, active = well fitted inhibition curve with a large enough effect; inconclusive = small, poorly fitted or top-dose-only effect; inactive = flat fitted curve, though single readings scatter. No potency is given beside an inconclusive call; the fits are too rough.
molecular target: Alanine aminotransferase 2 (Homo sapiens) (UniProt Q8TD30); experiment: Primary qHTS assay for inhibitors of Glutamate pyruvate transaminase 2 (GPT2); details: Recombinant GPT2, coupled pyruvate oxidase/HRP Amplex Red fluorescence; series mostly up to 57.7 µM; also: nearly all actives have a fitted effect of over 60% in size
Sequence of UniProt Q8TD30 (Q8TD30 whole entry, looked up): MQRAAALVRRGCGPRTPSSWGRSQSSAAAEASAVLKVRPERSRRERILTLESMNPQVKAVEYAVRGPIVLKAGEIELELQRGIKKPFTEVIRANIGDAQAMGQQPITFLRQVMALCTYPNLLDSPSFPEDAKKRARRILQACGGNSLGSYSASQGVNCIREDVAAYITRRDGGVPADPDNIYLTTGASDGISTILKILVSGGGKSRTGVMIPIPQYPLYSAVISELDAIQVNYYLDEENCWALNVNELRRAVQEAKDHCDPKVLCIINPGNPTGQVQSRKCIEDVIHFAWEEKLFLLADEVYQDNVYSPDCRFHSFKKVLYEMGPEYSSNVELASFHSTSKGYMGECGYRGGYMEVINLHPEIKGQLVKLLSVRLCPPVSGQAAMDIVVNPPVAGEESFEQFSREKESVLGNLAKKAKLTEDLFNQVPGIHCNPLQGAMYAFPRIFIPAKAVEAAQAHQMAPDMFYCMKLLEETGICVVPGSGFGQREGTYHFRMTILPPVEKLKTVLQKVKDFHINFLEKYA
How it was run: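 Recombinant GPT2 (10ng/uL) with 250uM a-KG and 2mM L-alanine, 30 min at room temperature, in HEPES pH 7.5 buffer. Pyruvate detected by pyruvate oxidase/HRP/Amplex Red fluorescence after 30 min in the dark; AOA (50uM) as positive control.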
Potency is read from the fitted curve at half-maximal effect; tags tell the direction and shape of the fitted curve.

| SMILES | Potency |
| --- | --- |
| Cc1ccc2nc([C@H]3CCN(Cc4ccc(S(C)(=O)=O)cc4)C3)[nH]c2c1 | inactive |
| c1cc(-c2cnn3cc(-c4ccc(N5CCNCC5)cc4)cnc23)c2cccnc2c1 | inactive |
| C/C=C/c1ccc2oc(-c3ccc(O)c(OC)c3)c(C)c2c1 | inconclusive [inhibitor, single point] |
| O=C(NC1CCCN(CCc2ccccc2)C1)C1(Cn2cccn2)CC1 (centres undefined) | inconclusive [inhibitor, full curve, poor fit] |
| O=C(Nc1cccc2ccccc12)N[C@H]1CO[C@H]2[C@@H]1OC[C@@H]2n1nnnc1-c1ccc2c(c1)OCO2 | inconclusive [inhibitor, partial curve, poor fit] |
| CC(C)(C)OCC1CN(Cc2cccc(F)c2)[S+](=O)([O-])c2cnccc2O1 (centres undefined) | inconclusive [inhibitor, single point] |
| COCC[C@]1(O)CCN(C(=O)c2ccccc2Cl)C[C@H]1C | inconclusive [inhibitor, single point] |
| O=C(c1cccc(F)c1)N1CCOc2ccc(CN3CCc4ccccc4C3)cc2C1 | inconclusive [inhibitor, single point] |
| Cc1cccc(OCCc2noc(C3CN(C(=O)Cn4ccnc4)C3)n2)c1 | inconclusive [inhibitor, single point] |
| CN1C[C@H](N(C)C)CCC[C@@H](C(=O)N(C)Cc2cccnc2)CC1=O | inactive |
| CC(C)CNC(=O)c1ccc2c(c1)C1(CCCN(CC3CC3)C1)CN2C (centres undefined) | inactive |
| CC(C)NC(=O)NC[C@H]1O[C@@H](CC(=O)NC2CC2)[C@H](O)[C@@H]1O | inactive |
| COCC1CN(C2CCC2)CC12CCN(C(=O)c1ccc(F)cc1F)CC2 (centres undefined) | inconclusive [inhibitor, single point] |
| CN(C)c1ccc2ncc(Nc3ccccc3F)n2n1 | inconclusive [inhibitor, single point] |
| Cn1cccc1C(=O)N1CCCN(C(=O)C2CC2)C(c2ccccc2)CC(=O)NCC1 (centres undefined) | inconclusive [inhibitor, single point] |
| COC(=O)N1CCCC1C(=O)N1CCC(c2ccccc2)CC1 (centres undefined) | inconclusive [inhibitor, single point] |
| COCCN1C(=O)c2ccccc2C(C(=O)Nc2cc(Cl)ccc2OC)C12CCCC2 (centres undefined) | inactive |
| COc1ccc(N2CCN(C(=O)[C@H]3CCC[C@H]3NC(=O)c3cnc(C)cn3)CC2)cc1 | inconclusive [inhibitor, partial curve, poor fit] |
| O=C(NCC(F)(F)F)C1CN(c2cccc(Cl)c2)C(=O)N1 (centres undefined) | inconclusive [inhibitor, single point] |
| CCn1ccc2sc(C)c(C(=O)N3CCN(c4ccc(F)cc4)CC3)c2c1=O | inconclusive [inhibitor, single point] |
| CN(C(=O)c1ccc(C(F)(F)F)cc1)C1CCc2ccccc21 (centres undefined) | inconclusive [inhibitor, full curve, poor fit] |
| CNC1CCC(N(Cc2cccc(-c3ccncc3)c2)C(=O)c2sc3c(F)ccc(F)c3c2Cl)CC1 (centres undefined) | inconclusive [inhibitor, partial curve, poor fit] |
| CNC(=O)c1ccccc1Nc1cc(Nc2ccc(N3CCOCC3)cc2OC)ncc1C(F)(F)F | active: 22.4 µM |

| SMILES | Potency |
| --- | --- |
| COc1cccc(-c2ccnc3nc(Cc4cc(F)cc(F)c4)nn23)c1 | inconclusive [inhibitor, single point] |
| COc1ccccc1CN1CCC(O)(c2csc(CN3CCN(c4ccccn4)CC3)n2)CC1 | inactive |
| Cc1ccc(NS(=O)(=O)c2ccccc2)c(=O)n1CC(=O)NC1CCCC1 | inconclusive [inhibitor, full curve, poor fit] |
| Cc1cc(-c2nccc3c(=O)cc(N4CCOCC4)oc23)ccn1 | inactive |
| CCCOc1cc(C)c2c(c1C)C[C@H](C(C)C(=O)N1CCC(O)CC1)CC2 (some centres undefined) | inconclusive [inhibitor, partial curve, poor fit] |
| Cc1ccc(S(=O)(=O)n2ccc(-c3c(-c4ccc(Cl)cc4)noc3C)n2)cc1 | inconclusive [inhibitor, single point] |
| Cc1nc2c(NC(=O)Nc3cccc(C(F)(F)F)c3)cccn2n1 | inactive |
| COc1ccc(-c2nn(-c3ccccc3C)cc2CN(C)Cc2nonc2C)cc1F | inconclusive [inhibitor, single point] |
| CNC(=O)c1ccc2c(c1)CCO[C@H]2CCN1CCN(c2ccc(OC)cc2)CC1 | inconclusive [inhibitor, single point] |
| Cc1noc(C)c1CCCNC(=O)C1CCN(C(=O)N2CC3CC(C2)[C@H]2CCCC(=O)N2C3)CC1 (some centres undefined) | inconclusive [inhibitor, single point] |
| CN(Cc1cn(-c2ccccc2)nn1)Cc1cnc2ccccn12 | inactive |
| N#Cc1ccc(C(=O)N2CCC(n3cc(-c4nc(C5CC5)no4)nn3)C2)cc1 (centres undefined) | inactive |
| CC(C)CCN1CCOc2cc(C(=O)Nc3nccs3)ccc2C1 | inactive |
| Cc1ccc(Cn2c(-c3cccc(Cl)c3)nc(C)c(CCO)c2=O)cc1 | inconclusive [inhibitor, single point] |
| COc1ccc2[nH]c(CNc3cc(C4CC(N)C4)nc(C)n3)cc2c1 (centres undefined) | inactive |
| COc1cccc(-c2cc3c(=O)n(CCNC(=O)Cc4ccsc4)ccn3n2)c1 | inactive |
| CCn1ccnc1CN1CCN(C2CCCCC2)C(CCO)C1 (centres undefined) | inconclusive [inhibitor, partial curve, poor fit] |
| O=C(c1ccccc1F)N1CCN(c2cc(-c3ccc(F)cc3)[nH]n2)CC1 | inactive |
| CCOc1ccc(CN2C[C@@H]3C(=O)N(CCN4CCc5ccccc5C4)C(=O)[C@@H]3C2)cc1 | inconclusive [inhibitor, single point] |
| COc1ccc(C(=O)N2CCC(n3cc(-c4nc(-c5ccccc5)no4)nn3)CC2)c(C)c1 | inactive |
| CCN1c2cc(C(=O)Nc3cccc(C(C)C)c3)ccc2C(=O)N2CCCCCC21 (centres undefined) | inactive |
| CC(C)Cc1cc(CC2(NCc3ccccc3O)COC2)no1 | inactive |
| O=C1[C@@H]2C[C@@H](CN2C(=O)c2cncnc2)Oc2ccccc2N1Cc1ccc(OC(F)(F)F)cc1 | inactive |

| SMILES | Potency |
| --- | --- |
| Cc1ccc(NC(=O)NCCc2ncc(C)n2C2CCC2)cc1C | inactive |
| O=C(Nc1ccc(F)cc1)C1CCCCN1Cc1ccc(-c2cccs2)cc1 (centres undefined) | inactive |
| COc1ccc(CC(=O)NC2CCN(Cc3ccc(-c4ccsc4)cc3)C2)cc1 (centres undefined) | inactive |
| CCn1nccc1C(=O)N1CC(Oc2ccc(-c3noc(-c4cccnc4)n3)cc2)C1 | inactive |
| COc1ccc(CCc2nc3nccc(-c4cccs4)n3n2)cc1 | inconclusive [inhibitor, single point] |
| Cn1nccc1OCc1cn2c(=O)n(C)cc(-c3ccsc3)c2n1 | inconclusive [inhibitor, full curve, poor fit] |
| COCc1ncc(C)n1C1CCN(C(=O)CCc2c[nH]c3ccccc23)C1 (centres undefined) | inactive |
| COC(=O)C1=C(C)N(Cc2ccccc2F)C(=O)CC1c1ccc(F)cc1F (centres undefined) | inconclusive [inhibitor, single point] |
| O=C1CCCN1CCCN1C(=O)[C@@H]2C[C@@H](O)CN2C2(CN(Cc3ccoc3)C2)C1=O | inconclusive [inhibitor, partial curve, poor fit] |
| O=C(NCc1cc2n(n1)CCCNC2)C1Cc2ccccc2S(=O)(=O)N1 (centres undefined) | inconclusive [inhibitor, single point] |
| Cc1ccsc1C(=O)N1CCC2(CC1)NC(=O)N(c1ccccc1)N2 | inconclusive [inhibitor, single point] |
| CNC(=O)[C@@H]1CN(Cc2ccc(Cl)cc2F)C[C@H]1CO | inactive |
| C/C=C(\C)C(=O)OCC1OC(OC2OC(CO)C(O)C(O)C2O)C(O)C(O)C1O (centres undefined) | inconclusive [inhibitor, single point] |
| Cc1ccc(CCC(=O)N2CCC(CO)(CN3CCCC3)CC2)cc1 | inconclusive [inhibitor, partial curve, poor fit] |
| O=C(CCc1c[nH]c2ccccc12)N1CCC2(CC1)CC(Cc1nc(C3CC3)no1)CCO2 (centres undefined) | inconclusive [inhibitor, partial curve] |
| Cn1ccnc1CN1C(=O)CO[C@H]2CN(C(=O)c3cccnc3)C[C@H]21 | inconclusive [inhibitor, full curve, poor fit] |
| CCOc1ccc(C(=O)N2[C@@H]3CC[C@H]2CC(NC(=O)c2ccncc2)C3)cc1OCC (some centres undefined) | inconclusive [inhibitor, single point] |
| CC(C)C[C@@H]1N[C@H](C(=O)NCCN(C)C)Cc2c[nH]c3cccc1c23 | inactive |
| O=C(CCc1cc2n(n1)CCCN(Cc1ccccc1)C2)N1CCOCC1 | inactive |
| O=C(NC1CCN(C(=O)c2ccc(-c3cncnc3)cc2)CC1)c1ccccc1 | inactive |
| CCc1ncc(C(=O)N(C)C2CCN(Cc3ccccc3)C2)cn1 (centres undefined) | inconclusive [inhibitor, full curve] |
| Cc1ccc(NC(=O)C2CCN(C(=O)c3ncn4c3COC(c3ccccc3)C4)CC2)cc1C (centres undefined) | inactive |
| COc1cc(O)cc(O[C@@H]2O[C@H](CO)[C@@H](O[C@@H]3OC[C@](O)(CO)[C@H]3O)[C@H](O)[C@H]2O)c1OC | inconclusive [inhibitor, single point] |

— PubChem BioAssay AID1671188 (National Center for Advancing Translational Sciences (NCATS), 2021)
